Experimental data published in publication PMC12136788.
The other results are listed elsewhere or left out.

T1: UNK ZnF1-6 (called full-length) (human, UniProt Q9C0B0 30-357)
T1 sequence: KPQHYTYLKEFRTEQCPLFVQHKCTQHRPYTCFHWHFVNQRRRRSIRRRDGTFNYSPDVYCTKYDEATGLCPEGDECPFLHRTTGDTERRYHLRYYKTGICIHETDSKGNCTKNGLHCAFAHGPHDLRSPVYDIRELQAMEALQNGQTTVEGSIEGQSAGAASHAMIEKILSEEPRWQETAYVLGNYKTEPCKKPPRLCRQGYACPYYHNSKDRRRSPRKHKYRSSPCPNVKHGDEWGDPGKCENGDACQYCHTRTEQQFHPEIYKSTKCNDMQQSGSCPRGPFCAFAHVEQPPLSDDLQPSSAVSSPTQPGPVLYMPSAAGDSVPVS

B1: ENSG00000198589:be:win_8951|3pUTR|ENSG00000198589|bound_else_gene|NA|bound_elsewhere_windowed (ssRNA)
RNA: GGGAGUUCUACAGUCCGACGAUCGAAAAUUUGAUGCUGUAAUUUGGGUCCUGUAUUUUUCCAAACAACUGUGCUUCUUCAGCACUAAUAUUUCUGGGAUUUAAAUAGUAAUGUUUAAAUUAUGGUAAAUGUAAUUUAAAACAUCAACAGAGGAUUGAGCAUCA
B2: chr9:133361993:133362109:-|3pUTR|ENSG00000148248|msi1_unk|FALSE|overlapping (ssRNA)
RNA: GGGAGUUCUACAGUCCGACGAUCGGCAGGUUUCUGCUCAUAAGUGCUUUUGGAAGUCACCUACCUUUUUAACACAGCCGAACUAGUCCCAACGCGUUUGCAAAUAUUCCCCUGGUAGCCUACUUCCUUACCCCCGAAUAUUGGCAACAGAGGAUUGAGCAUCA
B3: chrX:117909842:117909960:-|CDS|ENSG00000003096|unk|total|mutant (ssRNA)
RNA: GGGAGUUCUACAGUCCGACGAUCAGCACAGGGGAGUUCUUGAAACUCCCUUUUGAGCGUCUUGCCUUCGUGCUUUCCAGUAACCGCCUUAAGCACUGUACUGAACUUGAGCUCUUUAAGGCUACCUGUCGUUGGCUUCGCCUGCAACAGAGGAUUGAGCAUCA
B4: chr3:48432659:48432768:-|CDS|ENSG00000164051|unk|total|mutant (ssRNA)
RNA: GGGAGUUCUACAGUCCGACGAUCAGUCCCCCGACCAGAGACAGAGAUGCCGAUGUCCUUUCAGCUGCCUUGAAAGAGCAGCUCCGUCAUUCCAGGCAAGUCCAUUCAUGUCCCGAAGGCUUACGAGAGCAGCUUGAUGGCCUACAACAGAGGAUUGAGCAUCA
B5: chr7:88202242:88202358:+|3pUTR|ENSG00000008277|unk|FALSE|unique (ssRNA)
RNA: GGGAGUUCUACAGUCCGACGAUCUCAGGAUAGAUAAGCAUGUACUCCUUUUUUAACUUGCUGGAAGACUUGCCCCUCCAAACUAGCACCCCCAAAAGACAACUUCUUUCAGAAACGGGGUGUUUUACCUAAACAUAGUAGCUUCAACAGAGGAUUGAGCAUCA
B6: chr1:117869688:117869789:-|3pUTR|ENSG00000196505|msi1|FALSE|unique (ssRNA)
RNA: GGGAGUUCUACAGUCCGACGAUCACUCCAGCAGUGAGCAUUUAGAGAGUGUGUUGUCUUCCAGAGUCAUGAAUGAUUUUGUUUAGCUAUCAGGUCUACUACCUCUAAGGACAUUUCAUAGCAGCAUCUCUUGAGUUGCCUGCACAACAGAGGAUUGAGCAUCA
B7: chr8:23145667:23145921:-|CDS|ENSG00000173530|control|control|control (ssRNA)
RNA: GGGAGUUCUACAGUCCGACGAUCGGGGAUGCUUGCCUCUCCCUAUCACUACCUUAUCAUCAUAGUGGUUUUAGUCAUCAUUUUAGCUGUGGUUGUGGUUGGCUUUUCAUGUCGGAAGAAAUUCAUUUCUUACCUCAAAGGCAUCAACAGAGGAUUGAGCAUCA
B8: chr6:107883018:107883119:-|CDS|ENSG00000025796|unk|FALSE|bound_elsewhere (ssRNA)
RNA: GGGAGUUCUACAGUCCGACGAUCAAGGAAGAUGAAGAAGAAGUUUCAGAUAAGGGCAGUGAUUCUGAAGAAGAAGAAACCAAUAGAGAUUCCCAAAGUGAGAAAGAUGAUGGUAGUGACAGAGACUCUGAUAGAGAGCAAGAUCAACAGAGGAUUGAGCAUCA
B9: chr7:50445662:50445763:-|CDS|ENSG00000132436|msi1|total|mutant (ssRNA)
RNA: GGGAGUUCUACAGUCCGACGAUCGUUAUCUCAACGGGGAGAUGGUGAGCAUGAAUCUUCCCGAAGGAUAAAAACAGAAUUUUCCGUUCAAUCCGAUGGAGCAACAACAUCUUCUGAAGAUCGUAUCCCCGUGGUGGGAGCAACCAACAGAGGAUUGAGCAUCA
B10: chr2:85327303:85327429:-|CDS|ENSG00000152291|msi1|total|mutant (ssRNA)
RNA: GGGAGUUCUACAGUCCGACGAUCACCCAAAAAGGCAGCACCCGCAAGUCGGGUUCGGAGGCGCAGACCACAAAAGACAGCACCCGUAAGUCGCAUCCGGAGCUGCAGACUCCAAAAGACAGCACUGGCAAAUCGGGUGCGGAGCAACAGAGGAUUGAGCAUCA
B11: chr1:108700024:108700125:+|3pUTR|ENSG00000134186|msi1|FALSE|bound_elsewhere (ssRNA)
RNA: GGGAGUUCUACAGUCCGACGAUCCACAUUGAAUCCUAUAAAUGAUUAAAUCUGCUUUUUUCCCCCACGUUGAGAUUGUGCAGUAGUUCGCACUCCUCAAGCUCUCCCUGUAGGCUGCAUUUUCAUUUCCUCUUUCGUGUAGGGCAACAGAGGAUUGAGCAUCA
B12: chr1:64832709:64832810:+|3pUTR|ENSG00000162437|msi1|total|mutant (ssRNA)
RNA: GGGAGUUCUACAGUCCGACGAUCACAGCCCGAAAGUUUAAGGUAAUUUCUAAGUAUACUACCUAUAAGUAACUGAUAAGAAUCCGGCAUCAUUCAGUGAUACCGCAGAUGACUAAUGGGUUUUUCAGGCCCUGCACUUCUCUUCAACAGAGGAUUGAGCAUCA
B13: ENSG00000138778:stop:overlap|stop_codon|ENSG00000138778|stop_codon|NA|stop_codon (ssRNA)
RNA: GGGAGUUCUACAGUCCGACGAUCCUCAGCCAGGUCCUUGGCACGCCUCCUCAGGCAAGGAUGUGCCUGAGUGCAAAACUCAGUAGACUCCUCUUUGUCACUUCUCUGGAGAUCCAGCAUUCCUUAUUUGGAAAUGACUUUGUUCAACAGAGGAUUGAGCAUCA
B14: chr11:10511672:10514915:-|three_prime_utr|ENSG00000110315|control|control|control (ssRNA)
RNA: GGGAGUUCUACAGUCCGACGAUCGAAGUGAAAGUCUUCUGUUGCUAUUGUGGGCUCAAAUAUUUGGUCAUGGGGGAAGAAUGUAGGGUUGUGGCACUGGCACAGACACAGGAAAAUCCAUUUUCCCCACUCUUUUAUUUUUGCCAACAGAGGAUUGAGCAUCA
B15: chr4:173322470:173322571:+|3pUTR|ENSG00000109586|msi1|total|mutant (ssRNA)
RNA: GGGAGUUCUACAGUCCGACGAUCUGCCGCAUUCACUCCCUUACCUACUGGCAUUCCCAGUGCCCUCUGUCCAUACCUACUUCCCGGAUUGCAAAGGAGUCUUCCAACCCGAGAAAAAUUGUCCACUGACAUUUGGGAUUUACUCAACAGAGGAUUGAGCAUCA
B16: chr10:60791946:60792061:+|CDS|ENSG00000170312|unk|total|mutant (ssRNA)
RNA: GGGAGUUCUACAGUCCGACGAUCGUCAGCUCGUUACUCAACUCCAGUUGACAUUUGGAGUACCGGCACCAUAUUUGCUGAACCCGCAACUAAGAAACCACUUUUCCAUGGGGAUUCAGAAAUUGAUCAACUCUUCAGGAUUUUCAACAGAGGAUUGAGCAUCA
B17: chr17:15229982:15230086:-|3pUTR|ENSG00000109099|msi1_unk|total|mutant (ssRNA)
RNA: GGGAGUUCUACAGUCCGACGAUCUCAUAAAGCCUUCAUCACUCCCACAUUUUUCUUACGGUCGGAGCAUCAGAACAAGCGUCCCGACUCCUUGGGACCGUGAGUUCCCCGAGCUUGGCUGGGUCCCGGCUGUUCUGUGCCUCCCAACAGAGGAUUGAGCAUCA
B18: chr20:3582170:3582271:+|CDS|ENSG00000088812|msi1|FALSE|bound_elsewhere (ssRNA)
RNA: GGGAGUUCUACAGUCCGACGAUCGGCCUUCGGAAGAUCAAUGUGUCCUACUGGUGCUGGGAAGAUAUGUCCCCAUUUACAAAUAGUUUACUACAGUGGAUGCCGUCUGAGCCCAGUGAUGCUGGAUUCUGUGGAAUUUUAUCACAACAGAGGAUUGAGCAUCA
B19: chr10:74118286:74118577:+|3pUTR|ENSG00000035403|msi1|FALSE|unique (ssRNA)
RNA: GGGAGUUCUACAGUCCGACGAUCGUAUUCUCAAACACAGUUACACUUGUGCACCCUCUAUCCCAAUAGGCAGACUGGGUUUCUAGCCCAUGGACUUCACAUAAGCUCAGAAUCCAAGUGAACACUAGCCAGACACUCUGCUCUCAACAGAGGAUUGAGCAUCA
B20: chr20:50583650:50583751:+|3pUTR|ENSG00000196396|msi1|total|mutant (ssRNA)
RNA: GGGAGUUCUACAGUCCGACGAUCUUCCUAAGCCUGUUGCUGAAGUCAUUGUCGCUCAGCAACCGGGUGCAGUUUUCCAGGAACCGGCAUUUGCCUAAUUCCUGGCAUGACACUCCCGUGACUUCCUGGUGAGGCCCAGCCUGUCAACAGAGGAUUGAGCAUCA
B21: chr9:86945015:86945116:-|3pUTR|ENSG00000180447|msi1|total|mutant (ssRNA)
RNA: GGGAGUUCUACAGUCCGACGAUCUUGGUUUUGGAUAAGUUUGAGCCCUUGACCUUAAUUUCAUUGCUACCACUCUGAUCUCUCCGCACAUUUCUCCGGAUUAAGGGUCCAAAAAUGCUGAUCUAAGGGGUUGCCAUGGUGUUGCAACAGAGGAUUGAGCAUCA
B22: chr1:32196422:32196614:+|3pUTR|ENSG00000084652|msi1|total|mutant (ssRNA)
RNA: GGGAGUUCUACAGUCCGACGAUCACAGUUGUUUCUGUGUCCUGUUCUACCCCCACUCCAGUACAUAACUACUAUGUACUGUGCCGAGCCAUUCUAUAUGCUGAAUGUUCUGCUGUUGCAAACUUGCCAGGGUAUCCGCCAGUGCAACAGAGGAUUGAGCAUCA

Target: T1, UNK ZnF1-6 (called full-length)
Assay: nsRBNS (natural sequence RNA bind-n-seq); RBNS binding buffer (assumed for nsRBNS): 25 mM Tris pH 7.5, 150 mM KCl, 3 mM MgCl2, 0.01% Triton X-100, 500 ug/ml BSA, 20 U/ml SUPERase-In, 4 C; UNK is unkempt and MSI1 is Musashi-1; names of the RNAs are library labels; protein concentration not given here; high values mean tight binding

Binder | binding signal [enrichment R]
B1 | 0.552
B2 | 0.584
B3 | 0.481
B4 | 0.674
B5 | 0.937
B6 | 0.336
B7 | 0.895
B8 | 0.988
B9 | 0.518
B10 | 0.714
B11 | 0.662
B12 | 0.244
B13 | 0.636
B14 | 0.749
B15 | 1.06
B16 | 0.671
B17 | 0.662
B18 | 0.689
B19 | 0.418
B20 | 0.376
B21 | 0.575
B22 | 0.555
